Whole data set: some 110,000 compounds, median “z-score” near -0.1, cut for the highest 2% near 2. The list shows a part of the results. The source made the active and inactive calls.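 How the source made its calls: active means z-score in the third read window above 3 or below -3; inactive means the rest.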

We go through 110 compounds from PubChem BioAssay AID488969 (Vanderbilt High Throughput Screening Facility, 2010).

The target of this test is Metabotropic glutamate receptor 8 (Rattus norvegicus) (UniProt P70579). In words: mGluR8 Gi/Go-coupled signaling modulation – cell-based, rat, thallium flux, HTS, primary screen (AID 488969). As to conditions: HEK293 rat mGluR8, GIRK (G protein-gated inwardly rectifying potassium channel) thallium flux, FluoZin2; at 10 µM; stronger effect = higher value; submaximal glutamate (EC20) added with thallium.
UniProt P70579, sequence (P70579 whole entry, looked up): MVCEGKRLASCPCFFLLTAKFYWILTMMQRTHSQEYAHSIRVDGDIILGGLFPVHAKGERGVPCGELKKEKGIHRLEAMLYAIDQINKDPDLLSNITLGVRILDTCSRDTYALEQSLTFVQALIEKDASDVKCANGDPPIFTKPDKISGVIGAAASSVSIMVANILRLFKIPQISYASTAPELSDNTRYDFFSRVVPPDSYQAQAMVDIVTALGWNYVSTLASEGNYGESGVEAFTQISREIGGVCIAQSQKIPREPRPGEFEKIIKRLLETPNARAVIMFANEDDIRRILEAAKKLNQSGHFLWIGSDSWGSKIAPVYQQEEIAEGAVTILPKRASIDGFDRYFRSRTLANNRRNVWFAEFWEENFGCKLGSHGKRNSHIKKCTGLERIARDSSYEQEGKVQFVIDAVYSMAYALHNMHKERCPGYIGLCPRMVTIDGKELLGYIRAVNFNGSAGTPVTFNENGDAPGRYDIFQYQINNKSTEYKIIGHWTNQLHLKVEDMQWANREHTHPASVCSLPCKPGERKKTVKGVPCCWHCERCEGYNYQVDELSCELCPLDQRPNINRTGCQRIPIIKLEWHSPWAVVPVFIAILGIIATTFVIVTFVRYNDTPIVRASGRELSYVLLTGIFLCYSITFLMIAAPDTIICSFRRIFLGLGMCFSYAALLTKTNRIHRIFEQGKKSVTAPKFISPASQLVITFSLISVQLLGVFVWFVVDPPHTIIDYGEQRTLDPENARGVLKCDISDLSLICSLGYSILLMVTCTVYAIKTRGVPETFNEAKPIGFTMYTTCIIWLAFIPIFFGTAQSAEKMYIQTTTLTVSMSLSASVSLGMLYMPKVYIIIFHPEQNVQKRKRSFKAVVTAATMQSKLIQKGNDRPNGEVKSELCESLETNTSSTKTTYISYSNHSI
With `CCCCCCn1c(=O)c(-c2ccccc2)c(O)c2ccccc21`, the z-score is -0.524.

The compound `O=C(O)CSc1nc(C(F)(F)F)cc(=O)n1-c1ccccc1` showed a z-score of 0.25.

Compound `Cn1cc(Cl)c(C(=O)Nc2nc3ccccc3s2)n1` had a z-score of 0.73.

`O=C(CC1Sc2ccccc2NC1=O)Nc1cccnc1` (stereo not given) came in with a z-score of 0.163.

`O=C1C=C(Nc2ccc(O)cc2)CC(c2ccco2)C1` (stereo not given) gave a z-score of 0.053.

`COc1ccc2[nH]c(=O)c(CN(C(=O)c3cccnc3)c3ccccc3OC)cc2c1` had a z-score of -0.0305.

As to `O=C(Nc1cccc(Cl)c1Cl)C1CCN(c2ncccn2)CC1`, the z-score was -0.442.

In turn, `FC(F)(F)c1cc(-c2ccccc2)nc(NCC2CCCO2)n1` (stereo not given) registered a z-score of 0.426.

Consider `O=C(CN1CCN(S(=O)(=O)c2ccccc2)CC1)Nc1ccc(N2CCOCC2)cc1`, for which the z-score is -0.254.

For `Cc1cccc(C)c1OCC(=O)NNC(=O)Nc1ccc(Cl)cc1`, the z-score was 0.0655.

The compound `C/C(=N\NC(N)=S)c1ccc(Cl)s1` yielded a z-score of 2.19.

Turning to `COC(=O)c1cc(OC)c(OC)cc1NC(=O)c1ccc(OC)c(OC)c1`, the z-score is -0.371.

In turn, `O=C(NCCN1C(=O)S/C(=C\c2ccccc2)C1=O)c1cc(S(=O)(=O)N2CCOCC2)c(Cl)cc1Cl` displayed a z-score of -0.15.

For the compound `CCOC(=O)c1sc(=S)n(C)c1C`, the z-score was -0.209.

Take `CCC(=O)NC(=S)Nc1ccc(-c2nc3ccc(C)cc3s2)cc1`: the z-score was determined as 1.19.

`O=C(Nc1nnc(C2CCCCC2)s1)c1ccco1` yielded a z-score of -0.0517.

`COc1ccccc1C(=O)Nc1cccc(-c2cn3ccsc3n2)c1` yielded a z-score of -0.847.

As for `CCOc1cc(CNC(C)C)c(Cl)cc1OCC(=O)NCCc1ccccc1`, the z-score was 0.00454.

For the compound `O=C1CC(=O)N(CCc2ccccc2)C(=O)N1CCc1ccccc1`, the z-score was 0.000149.

In the case of `NC(=O)c1ccc(Sc2nnc(-c3cccs3)n2CC2CCCO2)c([N+](=O)[O-])c1` (stereo not given), the z-score was -0.212.

`Cn1c(=O)c2c(ncn2CC(=O)NCc2cccnc2)n(C)c1=O` displayed a z-score of 0.0684.

Compound `CS(=O)(=O)NCC(c1ccco1)N1CCN(c2ccc(F)cc2)CC1` (stereo not given) displayed a z-score of 0.0131.

Turning to `CCn1nnnc1SCC(=O)Nc1ccc(OC)cc1`, the z-score is -0.115.

For the compound `COc1nc(Nc2ccc(OC)c(Cl)c2)nc(OC)n1`, the z-score turned out to be 0.0549.

`O=C(NC1CCCCC1)C(c1ccco1)N(Cc1cccnc1)C(=O)C1COc2ccccc2O1` (stereo not given) showed a z-score of -0.562.

In turn, `Cc1ccccc1NS(=O)(=O)c1cc(C(=O)NCCSC2CCCCC2)ccc1C` gave a z-score of -0.0988.

Regarding `COc1ccccc1CNC(=O)C1CC(c2ccccc2[N+](=O)[O-])=NO1` (stereo not given), the z-score is -0.25.

In the case of `c1ccc(CSc2nnnn2-c2cccc3ccccc23)nc1`, the z-score was -0.387.

In turn, `CCc1ccc(NC(=S)NC2CC3CCCC(C2)N3Cc2cccs2)cc1` (stereo not given) showed a z-score of -0.108.

`COc1cccc(-c2nnc(SCC(=O)Nc3cc(C)on3)n2C)c1`: the z-score was -0.206.

For the compound `COc1ccc(CNc2cc(C)ccc2C)c(OC)c1OC`, the z-score is -0.333.

In turn, `Cc1ccccc1Nc1nc(-c2sc(NC(=O)c3ccccc3)nc2C)cs1` displayed a z-score of -0.0216.

In turn, `COc1cc(NC(=O)c2cccs2)c(C(=O)OCC(=O)c2cc(C)n(-c3ccccc3)c2C)cc1OC` yielded a z-score of -0.278.

As for `CC1CCCCC1NC(=O)C1CCN(S(=O)(=O)c2cccc3nsnc23)CC1` (stereo not given), the z-score is -0.0938.

As to `C=CCNC(=O)c1onc(CSc2cccc(Cl)c2)c1C(=O)O`, the z-score is -0.371.

For the compound `Cc1c(C(=O)OC(C)C)nnn1-c1nonc1N`, the z-score is -0.266.

`CCOc1ccc(/C=C2/C(=O)N(c3ccc(OC)cc3)C(=S)N2CC(=O)OC)cc1OCC` had a z-score of 0.273.

Turning to `Oc1ccc2ccc3cccc[n+]3c2c1`, the z-score was active: -3.28.

For `CCOc1cc(NC(=S)NCCCN(C)C)c(OCC)cc1NC(=O)c1cccs1`, the z-score is -0.195.

With `CCOc1ccc(CN(C)CC(=O)c2c(N)n(Cc3ccccc3)c(=O)n(CC)c2=O)cc1OC`, the z-score turned out to be 1.15.

Compound `Cc1ccnc(NC(=O)C2COc3ccccc3O2)c1` (stereo not given) yielded a z-score of 0.344.

In the case of `COc1cc(Cl)c(S(=O)(=O)NCc2ccccn2)cc1Cl`, the z-score worked out at 0.238.

The compound `CCOC(=O)c1c(C)nc2ccccc2c1-c1ccccc1` showed a z-score of -1.86.

In the case of `N#CCSc1nccc(-c2cc(Cl)sc2Cl)n1`, the z-score is -0.121.

Turning to `COc1ccc(C2CC(c3cccs3)=NN2S(=O)(=O)c2ccc(C)cc2)cc1` (stereo not given), the z-score was -0.319.

Consider `COCCNC(=O)c1ccc(CN2CCOCC2)cc1`, for which the z-score was 0.145.

On to `COc1ccc(S(=O)(=O)N2CCCC(C(=O)NCc3ccncc3)C2)cc1Cl` (stereo not given), for which the z-score was -0.47.

The compound `COc1cccc(NC(=S)N2CCN(c3ccccn3)CC2)c1` gave a z-score of -0.0488.

Turning to `CCCCN(C(=O)CSc1nnc2ccccn12)c1c(N)n(Cc2ccccc2)c(=O)[nH]c1=O`, the z-score is 0.133.

`CCC1(C)Cc2c(sc3nnn(CC(=O)Nc4ccc(Cl)cc4)c(=O)c23)CO1` (stereo not given) gave a z-score of -0.349.

For `O=C(Nc1ccc(S(=O)(=O)NCc2ccccc2)cc1)c1ccccc1[N+](=O)[O-]`, the z-score was -0.102.

For the compound `O=C(COc1ccc(Cl)cc1)NCc1nnc(SCC(=O)c2ccccc2)o1`, the z-score was -0.197.

The compound `CC1CCN(C(=O)CN(c2ccc(Cl)c(C(F)(F)F)c2)S(C)(=O)=O)CC1` gave a z-score of 0.0312.

In the case of `O=C(COC(=O)Cc1cccs1)Nc1ccccc1F`, the z-score worked out at 0.319.

`NC(=O)C1CCN(C(=O)CSc2nc3c(c(-c4ccccc4)n2)CCCC3)CC1` returned a z-score of 0.11.

In the case of `O=C(CN(Cc1ccc2c(c1)OCO2)C(=O)c1cnsn1)NC1CCCC1`, the z-score was -0.186.

`C/C(=N\NC(=O)c1csc2ccccc12)c1ccc(O)cc1` gave a z-score of -0.0787.

`CC(C)(C)C1CCc2onc(C(=O)Nc3cnn(Cc4ccc(F)cc4)c3)c2C1` (stereo not given) returned a z-score of 0.916.

Turning to `CCOC(=O)CN1CC23C=CC(O2)C(C(=O)Nc2ccc(F)c(C)c2)C3C1=O` (stereo not given), the z-score is -0.226.

Regarding `Cc1occc1-c1n[nH]c(=S)n1CC(C)C`, the z-score amounted to 0.307.

Regarding `Cc1cc2nc(N)sc2cc1[N+](=O)[O-]`, the z-score was found to be 0.711.

With `CCCn1c2ccc(/C(C)=N\O)cc2c2cc(/C(C)=N/O)ccc21`, the z-score is -0.225.

Compound `CCCCNC(=S)NCCN1CCCCC1` gave a z-score of 0.407.

As for `Cc1cc(C)c2c(N)c(C(=O)c3cccc(Cl)c3)sc2n1`, the z-score was -0.231.

`CCn1c(CNC(C)=O)nnc1SCC(=O)c1ccc(Br)cc1` showed a z-score of -0.393.

With `CCOCC(=O)Nc1cc([N+](=O)[O-])ccc1C`, the z-score was -0.688.

Take `Cc1cc(N2CCOCC2)ncc1[N+](=O)[O-]`: the z-score is 0.108.

In turn, `COc1ccc(Cn2c(CCC(=O)Nc3ccc(C)cc3)nc3cccnc32)cc1` had a z-score of -0.111.

For the compound `Cc1ccc(C)c(NC(CC(=O)c2ccccc2)C(=O)OCC(=O)c2cccs2)c1` (stereo not given), the z-score was -0.244.

Compound `O=C(Oc1ccc(Br)cc1C(=O)/C=C/c1ccccc1F)c1ccco1` gave a z-score of -0.35.

Consider `O=C(COc1ccc(Br)cc1)Nc1cc(S(=O)(=O)N2CCCCC2)ccc1N1CCCCC1`, for which the z-score was -0.105.

On to `CCOc1cc(CNC2CCCC2)cc(Cl)c1OCc1ccc(F)cc1`, for which the z-score was determined as 1.69.

In turn, `C/C=C/c1ccc(Oc2nnnn2-c2ccc(C(=O)O)cc2)c(OC)c1` yielded a z-score of -0.254.

`COc1ccccc1/C=C/C=N/N1CCN(Cc2ccc(Cl)cc2)CC1` had a z-score of -0.494.

As to `C=CCn1c(O)c(N=NC(=O)CNC(=O)c2ccco2)c2ccccc21`, the z-score is -0.207.

`Cc1cc(C(=O)Cn2nnc3ccccc3c2=O)c(C)n1-c1ccccc1F` displayed a z-score of -0.445.

Consider `CC(=O)Nc1ccc(C(=O)NNC(=O)c2cccs2)cc1`, for which the z-score is 0.0116.

In the case of `Clc1ccc(Nc2ccc(-n3ccnc3)nn2)cc1Cl`, the z-score was -0.25.

Regarding `CC1(C)CC(=S)Nc2ccccc2S1`, the z-score is active: 7.97.

In the case of `CCC(C)(C)NC(=O)CN(C(=O)c1snc(C(N)=O)c1N)c1ccc(OC)c(OC)c1`, the z-score was -0.0928.

`Cc1cc(OCCNCCO)cc(C)c1Cl` showed a z-score of -0.221.

`O=C(CSc1nnc(NC2CCCCC2)s1)Nc1ccc(N2CCOCC2)cc1` displayed a z-score of 0.103.

`C=CCn1c(=N)c(C(=O)NCCCOC)cc2c(=O)n3cc(C)ccc3nc21` showed a z-score of -0.239.

In turn, `C=CCN1C(=O)C(Cc2ccc(OCC)cc2)SC1=Nc1ccc(C(=O)O)cc1` (stereo not given) displayed a z-score of 0.222.

On to `CC(=O)NC1C(Oc2cccc(C)c2)OC2COC(c3ccco3)OC2C1O` (stereo not given), for which the z-score is -0.195.

Regarding `CC(C(=O)N1CC2(C)CC1CC(C)(C)C2)N1C(=O)c2ccccc2C1=O` (stereo not given), the z-score is 0.1.

For `O=C(Nc1ccc2c(c1)OCCO2)C1CCN(S(=O)(=O)c2ccc(Br)s2)CC1`, the z-score came to 1.13.

With `COC(=O)Cn1ncn2cccc2c1=O`, the z-score is 0.0705.

In turn, `COc1ccc(/C=N/NC(=O)Nc2cccc3nsnc23)c(OC)c1` displayed a z-score of -0.131.

On to `CC(=O)C1=C(NC(=O)c2ccc(F)cc2)CC2C1C2(C)C` (stereo not given), for which the z-score was 0.743.

As to `Cc1ccc(NC(=S)N=Nc2c(O)n(C)c3ccc(S(=O)(=O)N4CCOCC4)cc23)cc1`, the z-score is active: 3.93.

Compound `Cc1cccc(OCCCN2CCCCCC2)c1` had a z-score of 1.74.

Compound `Cc1cccc(Oc2coc3cc(OC(=O)c4cccs4)ccc3c2=O)c1` gave a z-score of -0.0252.

Consider `O=C(NC(=S)Nc1cc(C(F)(F)F)ccc1N1CCOCC1)c1ccc(-c2cccc(Cl)c2)o1`, for which the z-score was -0.143.

`NC(=O)c1csc(-c2ccncc2)n1`: the z-score is 0.00251.

`Cc1ccc(S(=O)(=O)NNC(=O)c2ccc(O)cc2)cc1` registered a z-score of -0.0144.

`O=C(CCCNS(=O)(=O)c1cccc2nsnc12)NCCc1ccccc1` gave a z-score of -0.465.

Compound `CN(CC(CC(=O)Nc1nncs1)c1ccccc1)S(=O)(=O)c1ccc(Br)cc1` (stereo not given) returned a z-score of -0.149.

`CCn1cc(C(=O)O)c(=O)c2cc(F)c(N3CCN(S(=O)(=O)c4ccc(Br)cc4)CC3)cc21` gave a z-score of -0.406.

`CCOc1ccc(C(=O)NC(=S)Nc2cccc(NC(=O)c3ccco3)c2)cc1[N+](=O)[O-]` returned a z-score of -0.139.

Compound `O=C(C1CCN(C2CC(=O)N(Cc3ccccc3)C2=O)CC1)N1CCCCCC1` (stereo not given) had a z-score of -0.456.

The compound `COc1ccc(C2=NOC(COC(=O)c3ccc4ccccc4n3)C2)cc1` (stereo not given) returned a z-score of -0.0811.

For the compound `O=C(CCCc1nc(-c2ccc(Cl)cc2)no1)N1CCOCC1`, the z-score was active: 3.9.

Compound `CC(=O)NC(Cc1ccccc1)C(=O)OCC(=O)c1ccc(Cl)cc1` (stereo not given) returned a z-score of -0.205.

For the compound `COc1ccccc1N(CC(=O)Nc1ccc(S(=O)(=O)N2CCCCC2)cc1)S(C)(=O)=O`, the z-score is -0.0266.

`CCCCC(=O)Nc1ccc(C(N)=O)cc1`: the z-score is -0.235.

`COc1ccccc1NC(=O)CSc1nnc(CNC(=O)COc2ccc(Cl)cc2)o1`: the z-score was -0.884.

The compound `N#CC(C#N)=Cc1ccc(OC(=O)c2ccccn2)cc1` yielded a z-score of -0.325.

In the case of `O=C(c1cccc(S(=O)(=O)NCCOc2ccccc2)c1)N1CCN(c2ncccn2)CC1`, the z-score was found to be 0.21.

For the compound `CCOCCOC(=O)CCSc1n[nH]c(=O)[nH]c1=O`, the z-score stood at 0.0131.
